# In all, about 270,000 compounds went through this assay and about 5,800 (2.1%) were called active. Inconclusive results, whose numbers are uncertain, are shown with a selection of clear calls. The call rests on the fitted dose curve; in most records, active means well fitted inhibition curve with a large enough effect; inconclusive means small, poorly fitted or top-dose-only effect; inactive means flat fitted curve, though single readings scatter. Potencies of inconclusive entries are doubtful fits and often do not repeat.
# Target: Microtubule-associated protein tau (Homo sapiens) (UniProt P10636)
# Test: qHTS for Inhibitors of Tau Fibril Formation, Thioflavin T Binding; further: nearly all actives have a fitted effect of over 55% in size
# Settings: recombinant tau K18 P301L, heparin-induced fibrillization, ThT fluorescence; series mostly up to 57.4 µM
# Outline: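 Fibril formation assay: tau K18 P301L at 15 uM with trace Alexa 594 label, heparin inducer 20 uM, pH 7 sodium acetate buffer, 37 C for 6 hr; endpoint ThT signal.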
# Potency means the concentration at half of the fitted maximal effect; tags describe the fitted curve by direction and shape.
# Chain of UniProt P10636 (P10636 whole entry, looked up): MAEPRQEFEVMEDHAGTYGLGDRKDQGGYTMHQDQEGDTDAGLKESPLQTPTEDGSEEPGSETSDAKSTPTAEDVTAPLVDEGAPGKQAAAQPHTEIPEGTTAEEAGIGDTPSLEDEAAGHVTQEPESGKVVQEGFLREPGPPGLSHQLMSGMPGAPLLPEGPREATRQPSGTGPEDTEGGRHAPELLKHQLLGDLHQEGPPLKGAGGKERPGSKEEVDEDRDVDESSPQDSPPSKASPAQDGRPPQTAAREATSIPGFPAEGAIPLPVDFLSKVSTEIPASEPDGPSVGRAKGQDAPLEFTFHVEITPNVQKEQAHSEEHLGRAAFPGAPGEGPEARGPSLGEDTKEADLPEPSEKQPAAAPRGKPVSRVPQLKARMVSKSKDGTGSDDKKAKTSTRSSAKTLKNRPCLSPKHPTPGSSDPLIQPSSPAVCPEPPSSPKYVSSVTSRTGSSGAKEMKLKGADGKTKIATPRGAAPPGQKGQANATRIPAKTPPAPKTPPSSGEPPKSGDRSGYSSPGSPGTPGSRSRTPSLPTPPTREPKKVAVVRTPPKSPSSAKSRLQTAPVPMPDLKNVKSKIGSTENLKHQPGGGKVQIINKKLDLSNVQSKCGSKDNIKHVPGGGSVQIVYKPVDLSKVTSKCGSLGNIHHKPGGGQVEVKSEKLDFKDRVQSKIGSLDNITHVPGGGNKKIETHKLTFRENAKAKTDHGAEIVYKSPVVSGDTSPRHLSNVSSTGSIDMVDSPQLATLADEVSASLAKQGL
row,SMILES,Potency
1,COc1ccc(-c2nn(-c3ccccc3)cc2CNCc2cccnc2)c(F)c1,"inconclusive: 20 µM [inhibitor, partial curve, poor fit]"
2,Cc1ccc(-c2onc3ccc(C=O)cc23)cc1,active: 25.1 µM
3,CCC(C)Sc1oc(-c2ccco2)nc1S(=O)(=O)c1ccc(C)cc1 (stereo not given),"inconclusive: 31.6 µM [inhibitor, single point]"
4,COc1ccc(C(=O)/C=C/c2ccccc2)cc1,"inconclusive: 25.1 µM [inhibitor, partial curve, poor fit]"
5,O=C(c1ccc(C23CC4CC(CC(C4)C2)C3)o1)N1CCOCC1,inactive
6,COc1ccc(C(=O)NCC(=O)N=Nc2c(O)n(C)c3ccccc23)cc1OC,"inconclusive: 10 µM [inhibitor, partial curve]"
7,C[C@@](N)(C(=O)O)c1cccc(CC(=O)O)c1,inactive
8,Cc1ccccc1OCC(=O)Nc1ccc2nc(SCC(=O)N3CCc4ccccc43)sc2c1,inactive
9,COCCNC(=S)Nc1ccc(N2CCCCC2)cc1,"inconclusive: 20 µM [inhibitor, single point]"
10,CNC(=S)N(CCc1c(C)[nH]c2ccc(C)cc12)Cc1cccs1,"inconclusive: 22.4 µM [inhibitor, single point]"
11,C[C@@]12CCC3c4ccc(OC5C=CC(c6ccccc6)OC5CO)cc4CCC3C1CCC2=O (stereo not given in full),"inconclusive: 6.31 µM [inhibitor, partial curve, poor fit]"
12,CCOC(=O)N1CCC(NC(=O)c2cnn(-c3ccc(F)cc3F)c2C2CCN(C(=O)OC(C)(C)C)CC2)CC1,inactive
13,Cn1c(=O)cc2c3c(c(N4CCCCC4)ccc31)C(=O)c1ccccc1-2,active: 11.2 µM
14,Cc1ccc(C(=O)/C=C/c2c[nH]c3ccccc23)cc1,"inconclusive: 15.8 µM [inhibitor, partial curve]"
15,COc1ccc(CCNC(=O)c2cc(-c3cc(Cl)ccc3O)n[nH]2)cc1OC,"inconclusive: 3.16 µM [inhibitor, full curve, poor fit]"
16,CCOCCn1c(CN(Cc2ccccc2)Cc2ccccc2)nc2c1c(=O)n(C)c(=O)n2C,"inconclusive: 22.4 µM [inhibitor, partial curve, poor fit]"
17,CC(C)c1ccc(NC(=O)C[n+]2ccn(C3=C([O-])c4ccccc4C3=O)c2)cc1,"inconclusive: 10 µM [inhibitor, partial curve]"
18,O=C(CSCc1cccc(Cl)c1)N1CCN(Cc2ccc3c(c2)OCO3)CC1,"inconclusive: 39.8 µM [inhibitor, single point]"
19,COc1cc(/C=C2\SC(=S)N(NS(=O)(=O)c3ccccc3)C2=O)cc(OC)c1OC,"inconclusive: 15.8 µM [inhibitor, partial curve]"
20,CCN(CC)c1ccc(NC(=O)CCc2nc3cccnc3n2Cc2cccs2)c(C)c1,inactive
21,CCCOC(=O)c1ccc(NC(=O)CCOc2ccccc2)cc1,"inconclusive: 10 µM [inhibitor, partial curve]"
22,OCCN1CCN(Cc2cc(Br)cc(Br)c2O)CC1,inactive
23,C=CCc1cccc2cc(C(=O)NCCc3c(C)[nH]c4c(C)cccc34)c(=O)oc12,"inconclusive: 3.16 µM [inhibitor, full curve]"
24,Brc1ccc(-c2nc(-c3cccnc3)no2)o1,"inconclusive: 35.5 µM [inhibitor, single point]"

row,SMILES,Potency
1,CCOC(=O)N1C/C(=C\c2ccccc2)C(=O)/C(=C/c2ccccc2)C1,active: 14.1 µM
2,Cc1cc2c(cc1C)NC(CC(=O)Nc1cccc(Cl)c1)C(=O)N2 (stereo not given),"inconclusive: 15.8 µM [inhibitor, partial curve]"
3,CC(=O)c1c(C)[nH]c(C(=O)OCC(=O)Nc2sc3c(c2C#N)CCC(C)C3)c1C (stereo not given),inactive
4,O=C(NCCc1ccccc1)C1c2ccccc2C(=O)N1Cc1cccs1 (stereo not given),inactive
5,Cc1cc(C)cc(NS(=O)(=O)c2ccc(N3CCCCS3(=O)=O)cc2)c1,inactive
6,COC1CCCCC1Nc1cc(C)ccc1C (stereo not given),inactive
7,c1ccc(-c2cnc(CSc3ncnc4sccc34)o2)cc1,inactive
8,CC1Oc2ccccc2C=C1/C=C1/SC(N2CCOCC2)=NC1=O (stereo not given),"inconclusive: 10 µM [inhibitor, partial curve]"
9,O=S(=O)(/N=C(/Sc1ccccc1)c1ccccc1)c1ccccc1,"inconclusive: 35.5 µM [inhibitor, single point]"
10,COc1cccc(/C=N/n2c(C)nc3ccccc32)c1OC,"inconclusive: 15.8 µM [inhibitor, partial curve]"
11,O=C(COc1ccc2ccccc2c1)Nc1ccncc1,inactive
12,COc1cc(/C=c2\sc3n(c2=O)CCCN=3)ccc1O,"inconclusive: 31.6 µM [inhibitor, single point]"
13,COC(=O)c1ccc(-n2c(C)cc(/C=N/Nc3nc(C)cc(=O)[nH]3)c2C)cc1,"inconclusive: 28.2 µM [inhibitor, single point]"
14,Cn1nnnc1SCCCNCc1ccc(-c2ccc(F)c(Cl)c2)o1,inactive
15,COc1ccccc1OCCCC(=O)Nc1ccc([N+](=O)[O-])cc1Br,"inconclusive: 17.8 µM [inhibitor, partial curve]"
16,CC(C)(C)c1cnnn1-c1ccc(/C=N/Nc2ccc([N+](=O)[O-])cc2)cc1,"inconclusive: 3.98 µM [inhibitor, partial curve]"
17,CCOC(=O)N1CCN(C(=O)CSc2nnc(-c3cc(OC)cc(OC)c3)o2)CC1,"inconclusive: 22.4 µM [inhibitor, partial curve]"
18,COc1ccc(C(=O)NCCc2cn3ccccc3n2)cc1,"inconclusive: 10 µM [inhibitor, partial curve, poor fit]"
19,COc1ccc(NC(=O)COc2ccc(C)cc2)c([N+](=O)[O-])c1,"inconclusive: 10 µM [inhibitor, partial curve, poor fit]"
20,COc1ccc(S(=O)(=O)N2CCC(C(=O)N3CCc4ccccc4C3)CC2)cc1C,"inconclusive: 31.6 µM [inhibitor, partial curve, poor fit]"
21,Cc1cc(C(=O)COC(=O)c2ccc(CO)cc2)c(C)n1CC1COc2ccccc2O1 (stereo not given),"inconclusive: 31.6 µM [inhibitor, single point]"
22,CCOC(=O)N1CCc2c(sc3c2c(=O)n(Cc2ccccc2)c(=O)n3CC(=O)Nc2ccc(C)cc2C)C1,inactive
23,Cc1ccccc1NC(=O)c1ccc(CSc2ncccn2)cc1,"inconclusive: 20 µM [inhibitor, single point]"
24,O=C1c2ccccc2C(=O)N1OS(=O)(=O)c1ccccc1,"inconclusive: 14.1 µM [inhibitor, partial curve]"

row,SMILES,Potency
1,CC(=O)Nc1ccc(NC(=O)c2ccc3c(c2)NC(=O)c2ccccc2S3)cc1,"inconclusive: 35.5 µM [inhibitor, single point]"
2,CCC(C)NC(=O)c1c(N)n(/N=C/c2cccs2)c2nc3ccccc3nc12 (stereo not given),"inconclusive: 12.6 µM [inhibitor, partial curve]"
3,Cc1noc(/C=C/N(C)C)c1S(=O)(=O)NC1CCCCC1,"inconclusive: 12.6 µM [inhibitor, partial curve]"
4,CCc1ccc2c(c1)NC(c1ccc(C)cc1)=NC(c1cccs1)=N2,"inconclusive: 11.2 µM [inhibitor, partial curve]"
5,CC1=C(C(=O)OCCOc2ccccc2)C(c2ccsc2)NC(=O)N1C (stereo not given),inactive
6,O=S(=O)(c1ccc2nc(-c3ccco3)c(-c3ccco3)nc2c1)N1CCOCC1,active: 3.98 µM
7,N=c1oc2ccc3ccccc3c2cc1C(N)=S,"inconclusive: 3.16 µM [inhibitor, partial curve]"
8,COc1ccc(/C=C/C(=O)Nc2sc(C)c(C)c2C(=O)O)cc1,active: 2.24 µM
9,Cc1noc(C)c1C(=O)Nc1nnc(-c2ccccc2)s1,inactive
10,COc1cccc(OC)c1C(=O)N1CCN(c2c(Cc3ccccc3)c(C)nc3ncnn23)CC1,"inconclusive: 44.7 µM [inhibitor, single point]"
11,COc1ccc(NC(=O)C/C(C)=N/NC(=O)C(=O)NC2CCCCC2)c(OC)c1,"inconclusive: 12.6 µM [inhibitor, partial curve]"
12,O=c1c(N2CCc3ccccc3C2)csc2ccc(Cl)cc12,"inconclusive: 2 µM [inhibitor, full curve]"
13,Nc1ccc(-c2nc3c(Cl)c(N)ccc3[nH]2)cc1,"inconclusive: 25.1 µM [inhibitor, partial curve]"
14,O=C(Nc1nnc(S(=O)(=O)N2CCOCC2)s1)c1ccccc1F,"inconclusive: 20 µM [inhibitor, partial curve]"
15,CCOc1ccc(C(=O)NCC(c2ccc3c(c2)OCO3)N2CCOCC2)cc1 (stereo not given),inactive
16,Cc1ccc(S(=O)(=O)Oc2ccc(/C=C(/NC(=O)c3ccccc3)C(=O)Nc3ccccc3)cc2)cc1,inactive
17,C=CCN1C(c2cccc(C(F)(F)F)c2)=CS/C1=C(/C#N)c1nnc(N2CCOCC2)n1-c1ccccc1,"inconclusive: 14.1 µM [inhibitor, single point]"
18,Cc1cccc(Oc2cc(N)cc([N+](=O)[O-])c2)c1,"inconclusive: 28.2 µM [inhibitor, single point]"
19,CC(=O)c1ccc(N2Cc3ccccc3C3(CCOCC3)C2=N)cc1,"inconclusive: 35.5 µM [inhibitor, single point]"
20,CN1C(=O)/C(=C/C=C2\SCCN2C)N(C)C1=S,active: 28.2 µM
21,CC(=O)c1ccc(N2C(=O)N(Cc3ccccc3C#N)c3ccccc3S2(=O)=O)cc1,inactive
22,CN(C)c1ccc(C2C=C(c3ccccc3)Nc3nnnn32)cc1 (stereo not given),"inconclusive: 14.1 µM [inhibitor, partial curve]"

# From PubChem BioAssay AID1460 (National Center for Advancing Translational Sciences (NCATS), 2008)
